# Reference: the supplement of paper PMC9446081
# The whole screen tested about 39,000 compounds, of which about 220 (0.56%) showed activity. This is one part of the list.
# System: Escherichia coli K-12 BW25113
# Test: relative growth (OD600 normalised to plate interquartile mean) (fraction); higher = less growth inhibition, active = 0.2 or less
# Conditions: 50 µM; LB; incubation time: overnight (16-24 h)
# 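Also: static incubation at 37 °C against the wild-type strain, values averaged over two biological replicates.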
row,SMILES,relative growth
1,C[C@H]1CCCCO[C@H](CN(C)S(=O)(=O)c2ccccc2)[C@@H](C)CN([C@@H](C)CO)C(=O)c2cc(NS(C)(=O)=O)ccc2O1,inactive: 1.02
2,C[C@@H]1CN([C@@H](C)CO)C(=O)Cc2cc(NC(=O)Cc3cn(C)c4ccccc34)ccc2O[C@H]1CN(C)Cc1ccc(C(F)(F)F)cc1,inactive: 1.02
3,C[C@H](CO)N1C[C@H](C)[C@H](CN(C)Cc2ccc(C(=O)O)cc2)Oc2ccc(NC(=O)Nc3ccc(C(F)(F)F)cc3)cc2C1=O,inactive: 0.955
4,COc1ccc(S(=O)(=O)Nc2ccc3c(c2)C(=O)N([C@@H](C)CO)C[C@@H](C)[C@@H](CN(C)Cc2ccc(Oc4ccccc4)cc2)O3)cc1,inactive: 0.974
5,C[C@@H]1CCCCO[C@@H](CN(C)Cc2ccncc2)[C@H](C)CN([C@@H](C)CO)C(=O)c2cc(NC(=O)C3CCCCC3)ccc2O1,inactive: 1.01
6,C[C@@H]1CCCCO[C@H](CN(C)CC2CCCCC2)[C@@H](C)CN([C@H](C)CO)C(=O)c2cc(NS(=O)(=O)c3cccs3)ccc2O1,inactive: 1
7,COc1cc(S(=O)(=O)NCCN2CCN(S(=O)(=O)c3cc(OC)c(Cl)cc3OC)CC2)c(OC)cc1Cl,inactive: 0.978
8,C[C@H](CO)N1C[C@H](C)[C@@H](CN(C)C(=O)Nc2ccc3c(c2)OCO3)OCCCC[C@H](C)Oc2ccc(NC(=O)Nc3ccc4c(c3)OCO4)cc2C1=O,inactive: 1.01
9,C[C@@H]1CCCCO[C@@H](CN(C)C(=O)Nc2ccc(F)cc2)[C@H](C)CN([C@H](C)CO)C(=O)c2cc(NS(=O)(=O)c3ccccc3)ccc2O1,inactive: 1.02
10,Cn1c(NCCN(CCO)CCCc2ccc([N+](=O)[O-])cc2)cc(=O)n(C)c1=O,inactive: 1.03
11,CO[C@H]1CN(C)C(=O)c2ccc(NS(=O)(=O)CC(F)(F)F)cc2OC[C@@H](C)N(Cc2nccs2)C[C@@H]1C,inactive: 0.976
12,CN(C)C1C(O)=C(C(N)=O)C(=O)C2(O)C(O)=C3C(=O)c4c(O)cccc4C(C)(O)C3C(O)C12.Cl (configuration not stated),active: 0.0578
13,C[C@H]1CCCCO[C@H](CN(C)C(=O)Nc2ccccc2)[C@@H](C)CN([C@@H](C)CO)C(=O)c2cc(NC(=O)CCC(F)(F)F)ccc2O1,inactive: 0.991
14,C[C@@H]1CCCCO[C@H](CN(C)C(=O)Nc2ccc(C(F)(F)F)cc2)[C@H](C)CN([C@@H](C)CO)C(=O)c2cc(NC(=O)NC3CCCCC3)ccc2O1,inactive: 1
15,COc1ccc(S(=O)(=O)N(C)C[C@@H]2Oc3c(NC(=O)c4cnccn4)cccc3C(=O)N([C@H](C)CO)C[C@H]2C)cc1,inactive: 0.99
16,C[N+](C)(C)CCCC[C@@H]1NC(=O)[C@@H]2C[C@H](C(=O)NCc3ccc(F)cc3)[C@H](c3ccc(O)cc3)N2C1=O,inactive: 0.986
17,C[C@@H]1CN([C@@H](C)CO)S(=O)(=O)c2ccc(C#CC3CC3)cc2O[C@H]1CN(C)Cc1ccc(F)cc1,inactive: 1.01
18,C[C@H](CO)N1C[C@H](C)[C@H](CN(C)S(=O)(=O)c2cccs2)Oc2ncc(Br)cc2C1=O,inactive: 0.898
19,C[C@@H]1CN([C@H](C)CO)C(=O)c2cc(NS(=O)(=O)c3ccc(F)cc3)ccc2O[C@@H](C)CCCCO[C@@H]1CN(C)CC1CCCCC1,inactive: 0.955

row,SMILES,relative growth
1,COc1ccc([Si](C)(C)[C@@H]2[C@@H](CCO)O[C@]3(C(=O)N(Cc4ccccc4)c4ccc(N5C(=O)c6ccccc6Oc6ccccc65)cc43)[C@H]2C)cc1,inactive: 1.02
2,C[C@H]1CN([C@@H](C)CO)C(=O)Cc2cc(NS(=O)(=O)c3ccccc3)ccc2O[C@H]1CN(C)Cc1ccncc1,inactive: 0.971
3,CC(C)OC(=O)[C@H](C)N[P@](=O)(OC[C@H]1O[C@@H](n2ccc(=O)[nH]c2=O)[C@@](C)(O)[C@@H]1O)Oc1ccccc1,inactive: 0.961
4,C[C@H](O)C#Cc1ccc2c(c1)O[C@@H](CN(C)C(=O)Cc1ccccn1)[C@H](C)CN([C@@H](C)CO)S2(=O)=O,inactive: 0.984
5,C[C@@H]1CN([C@@H](C)CO)C(=O)c2cc(NC(=O)c3ccccc3)ccc2O[C@@H](C)CCCCO[C@@H]1CN(C)CC1CCCCC1,inactive: 0.979
6,CC(=O)N1[C@H](CO)[C@@H](c2ccccc2)[C@H]1CNC(=O)CN1CCOCC1,inactive: 1.02
7,C[C@H](CO)N1C[C@H](C)[C@H](CN(C)C(=O)Nc2cccc3ccccc23)Oc2ccc(NC(=O)Cn3cnnn3)cc2C1=O,inactive: 1.01
8,NC(Cc1cc(I)c(O)c(I)c1)C(=O)O.O.O (configuration not stated),inactive: 0.929
9,COc1ccc(NC(=O)N(C)C[C@@H]2Oc3ccc(NS(=O)(=O)c4c(C)noc4C)cc3CC(=O)N([C@@H](C)CO)C[C@H]2C)cc1,inactive: 0.993
10,CS(=O)(=O)N1Cc2cncn2C[C@H](COCC(=O)N2CCCC2)C1,inactive: 0.987
11,C[C@H](CO)N1C[C@H](C)[C@H](CN(C)Cc2ccc(Cl)c(Cl)c2)Oc2ccc(NS(=O)(=O)c3cccs3)cc2CC1=O,inactive: 1.01
12,O=C(CN1CCOCC1)NCC[C@@H]1CC[C@H](NS(=O)(=O)c2ccc(Cl)cc2)[C@@H](CO)O1,inactive: 0.981
13,C[C@H]1CN([C@@H](C)CO)C(=O)CCCn2nncc2CO[C@@H]1CN(C)S(=O)(=O)c1cccc(C#N)c1,inactive: 1.01
14,C[C@@H]1ON(c2ccc(I)cc2)[C@H](c2ccc(OC(=O)OC(C)(C)C)cc2)[C@H]1C(=O)N1C(=O)OC[C@H]1Cc1ccccc1,inactive: 1.01
15,C[C@@H]1CCCCO[C@H](CN(C)C(=O)NC2CCCCC2)[C@H](C)CN([C@H](C)CO)C(=O)c2cc(NS(=O)(=O)c3cccs3)ccc2O1,inactive: 1.02
16,C[C@@H]1CCCCO[C@H](CN(C)S(=O)(=O)c2ccc(Cl)cc2)[C@@H](C)CN([C@H](C)CO)C(=O)c2cc(NS(=O)(=O)c3ccc(F)cc3)ccc2O1,inactive: 1.02
17,C[C@@H]1CN([C@@H](C)CO)C(=O)c2cccc(NS(=O)(=O)c3ccccc3)c2O[C@H]1CN(C)Cc1ccncc1,inactive: 0.995
18,Cc1noc(C)c1S(=O)(=O)N(C)C[C@H]1Oc2ccc(NS(=O)(=O)c3ccc(Cl)cc3)cc2CC(=O)N([C@H](C)CO)C[C@@H]1C,inactive: 0.991
19,Cc1noc(C)c1NC(=O)N(C)C[C@H]1OCCCC[C@@H](C)Oc2ccc(NS(=O)(=O)c3ccc(Cl)cc3)cc2C(=O)N([C@@H](C)CO)C[C@H]1C,inactive: 1

row,SMILES,relative growth
1,CC(C)NC(=O)N(C)C[C@H]1Oc2ccc(NS(=O)(=O)c3ccc(F)cc3)cc2CC(=O)N([C@H](C)CO)C[C@H]1C,inactive: 0.979
2,COc1ccc(S(=O)(=O)Nc2ccc3c(c2)CC(=O)N([C@H](C)CO)C[C@H](C)[C@@H](CN(C)C(=O)Nc2c(C)noc2C)O3)cc1,inactive: 1.01
3,CN1N=C2CCN(C(=O)[C@@H](COCc3ccccc3)NC(=O)C(C)(C)N)C[C@@]2(Cc2ccccc2)C1=O,inactive: 1.01
4,C[C@@H]1CN([C@H](C)CO)C(=O)c2cccc(NC(=O)C3CC3)c2O[C@H]1CN(C)Cc1ccc(Oc2ccccc2)cc1,inactive: 0.983
5,C[C@@H]1CN([C@H](C)CO)C(=O)Cc2cc(NC(=O)Nc3ccc4c(c3)OCO4)ccc2O[C@@H]1CN(C)Cc1ccc(Oc2ccccc2)cc1,inactive: 0.987
6,C[C@@H]1CCCCO[C@@H](CN(C)C(=O)Nc2ccc(F)cc2)[C@H](C)CN([C@@H](C)CO)C(=O)c2cc(NC(=O)Nc3ccc(C(F)(F)F)cc3)ccc2O1,inactive: 1.03
7,Cn1c(=O)cc(N2CCC[C@@H](N)C2)n(Cc2cc(F)ccc2C#N)c1=O,inactive: 0.979
8,C[C@@H]1CN([C@@H](C)CO)S(=O)(=O)c2ccc(C#CCN(C)C)cc2O[C@H]1CN(C)Cc1ccc(F)cc1,inactive: 1.01
9,N#Cc1ncoc1N1CCC(C(N)=O)CC1,inactive: 0.869
10,C[C@@H]1CN([C@@H](C)CO)C(=O)Cc2cc(NS(=O)(=O)c3ccc(F)cc3)ccc2O[C@@H]1CN(C)Cc1ccc(-c2ccccc2)cc1,inactive: 1.01
11,O=C1CNC(=S)N1c1ccccc1,inactive: 0.968
12,CCCN(C)C[C@H]1OCCCC[C@H](C)Oc2ccc(NS(C)(=O)=O)cc2C(=O)N([C@H](C)CO)C[C@H]1C,inactive: 0.99
13,C[C@H]1COC(=O)[C@H](Cc2ccc(F)cc2)CC=CC[C@@H](CC(=O)N[C@H](CO)Cc2ccccc2)C(=O)N1,inactive: 1.01
14,COc1cccc(NC(=O)Nc2ccc3c(c2)C(=O)N(C)C[C@@H](OC)[C@H](C)CN(CCC(F)(F)F)[C@H](C)CO3)c1,inactive: 0.987
15,COc1ccc(S(=O)(=O)Nc2ccc3c(c2)C(=O)N([C@H](C)CO)C[C@H](C)[C@@H](CN(C)S(=O)(=O)c2cn(C)cn2)OCCCC[C@@H](C)O3)cc1,inactive: 0.998
16,C[C@@H]1CN([C@H](C)CO)C(=O)CCCn2nncc2CO[C@H]1CN(C)C(=O)Nc1ccc(N2CCN(C)CC2)cc1,inactive: 0.962
17,Cc1noc(C)c1S(=O)(=O)Nc1ccc2c(c1)C(=O)N([C@H](C)CO)C[C@H](C)[C@H](CN(C)CC1CCCCC1)OCCCC[C@H](C)O2,inactive: 0.983
18,COc1cccc(S(=O)(=O)N(C)C[C@@H]2Oc3ncc(-c4ccc(F)cc4)cc3C(=O)N([C@H](C)CO)C[C@@H]2C)c1,inactive: 1.02
19,COc1ccccc1NC(=O)N(C)C[C@@H]1Oc2ncc(Br)cc2C(=O)N([C@@H](C)CO)C[C@@H]1C,inactive: 1.01
